# Reference: PubChem BioAssay AID1240 (Sanford-Burnham Center for Chemical Genomics, 2008)
# Among all 50,000 compounds or so, about 800 (1.6%) showed an effect of 50% or more. This is one part of the list.
# Target: Bcl-2-like protein 10 (Homo sapiens) (UniProt Q9HD36)
# Assay: Phenotype converters, Bcl-B/TR3 peptide binding displacement, primary biochemical FP (AID 1240);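 note: 0% = Bcl-B with tracer peptide and DMSO and 100% = tracer peptide lacking Bcl-B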
# Settings: GST-Bcl-B / FITC-TR3 peptide fluorescence polarization; stronger effect = higher value; compound at 3.75 mg/L
# UniProt Q9HD36, sequence (Q9HD36 whole entry, looked up): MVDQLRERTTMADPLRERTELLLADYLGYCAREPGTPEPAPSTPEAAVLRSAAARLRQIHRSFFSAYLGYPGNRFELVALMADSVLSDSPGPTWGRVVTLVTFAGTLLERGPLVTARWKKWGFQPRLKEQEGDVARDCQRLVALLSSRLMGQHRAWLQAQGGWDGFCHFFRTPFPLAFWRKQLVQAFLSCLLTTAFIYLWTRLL
row,SMILES,displacement
1,COc1ccc(C2Nc3ccccc3C(=O)N2c2ccc(C)cc2)cc1Cn1cc([N+](=O)[O-])cn1 (centres undefined),14.9%
2,Cc1cc(Br)cc(C)c1NC(=O)c1c(F)cccc1F,12.4%
3,CCOc1ccc(C(=O)Nc2cccc(C(F)(F)F)c2)cc1Cl,-12%
4,CC(=O)n1nc(C)c2c1C[C@@H]1[C@H]2C1(C)C,8.6%
5,CCOC(=O)CSCCOc1ccc(/C=C2/C(=O)NC(=O)N(c3cccc(C)c3)C2=O)cc1OC,-11.6%
6,CCC(Sc1nc(C)cc(C)n1)C(=O)N1c2ccccc2Sc2ccccc21 (centres undefined),3.9%
7,CSc1ccc(C=Nc2ccccc2C(N)=O)cc1,-9.7%
8,Cc1ccccc1OCC(=O)O/N=C(\N)c1ccc(Cl)cc1,-8%
9,CC(=O)Nc1ccc(NS(=O)(=O)c2cc(C)ccc2C)cc1,4.7%
10,O=C1C=C(NCc2ccc3c(c2)OCO3)CC(c2ccccc2)C1 (centres undefined),-4.6%
11,CNC(=O)CCC(=O)Nc1cc(Cl)ccc1C,-10.4%
12,O=C1CC(O)(C(F)(F)C(F)F)Oc2ccc(Cl)cc21 (centres undefined),12.8%
13,CCC1(C)Cc2ccccc2-c2nc3n(c(=O)c21)CC(C(=O)O)S3 (centres undefined),-4.7%
14,COc1cc(C2/C(=C(\O)c3ccccc3)C(=O)C(=O)N2CCCCCC(=O)O)ccc1O (centres undefined),14.9%
15,CC1=NN(c2ccc(S(N)(=O)=O)cc2)C(=O)/C1=C/c1ccc(-c2ccc(Cl)cc2Cl)o1,-6.3%
16,CS(=O)(=O)N(Cc1ccco1)CC(O)Cn1c2ccccc2c2ccccc21 (centres undefined),10.9%
17,Cc1ccc(-c2cc(C(=O)N/N=C/c3c(C)nn(-c4ccccc4)c3C)[nH]n2)cc1,-3.8%
18,Cc1ccc(OCCSc2nc3ccccc3n2CCO)c(C(C)C)c1,-4.7%
19,CCOc1ccc(NC(=S)NC(NC(=O)C(c2ccccc2)c2ccccc2)C(Cl)(Cl)Cl)cc1 (centres undefined),13.1%
20,COc1ccc(NC(=O)C2=C(C)NC(=S)NC2c2c(OC)ccc3ccccc23)cc1 (centres undefined),-4.5%
21,CC1=NN(c2cccc(F)c2)C(=O)/C1=C/c1cccs1,-14.5%
22,O=C(CN1C(=O)/C(=C/c2ccccc2)SC1=S)Nc1cccc(Br)c1,11.9%
23,O=C(COc1ccccc1Cl)Nc1cc(C(F)(F)F)ccc1Cl,19.1%
24,CCN(CC)c1ccc(/C=N/Nc2nn[nH]n2)c(O)c1,-9%
25,Nc1ccccc1SC1=C([N+](=O)[O-])CS(=O)(=O)C1,13.5%
26,CSc1ccc(S(=O)(=O)N(CC(=O)N2CCN(c3ccccc3)CC2)c2ccc(C)cc2)cc1,-0.2%
27,COc1ccc(C(=O)Nc2cc(C(F)(F)F)cc(C(F)(F)F)c2)cc1,17.3%
28,O=C(CSC(=S)N1CCCCC1)c1ccc([N+](=O)[O-])cc1,-8%
29,CCc1cccc(CC)c1NC(=O)c1cccnc1,-4.5%
